Test results reported in the supplement of paper PMC8728848.
The other results are listed elsewhere or left out.

Biological target: Neu5Gc(b2-6)Gal(b1-4)GlcNAc
Assay: glycan array binding signal (z-score within array); higher = stronger binding
Settings: glycan notation: IUPAC condensed, linker removed
How it was run: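 Glycan array data were curated from 3228 arrays in the Consortium for Functional Glycomics database and kept only where the protein sequence was available. Glycan names were converted to IUPAC-condensed notation, and columns mapping to the same glycan were averaged. The binding signal is a within-array Z-score, averaged across arrays of the same protein sequence at different concentrations or buffers and across linkers. Negative Z-scores can be read as non-binding.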

B1: Pwp4 (Candida glabrata) (protein)
chain: MGSSHHHHHHSSGLVPRGSHMASVGNPITVSNVCSFPKNWHRTAGFRALTARLGIGIQSDSYKELLNYPGTFQLTTQQSSTTKPNFQISGLVGNIYGLTIVPSYLLVELTGYFVPPVSGEYTFSLEGSDDAAIIFIANPSTFKCGHVEDWPTAYDNDVTVTESIHATRTIYMIEGVAYPIRIAYYNGLSLGKLQASFTDPEGVKRVDWNGYIWRYDSCDTCSYV
glycan array binding signal (z-score): -0.094
